The text below walks through data of article PMC12040169 (PLOS Biology, 2025).

This experiment concerns T1, C. trachomatis L2/434/Bu expressing GFP (CTL2-GFP).
T1 construct: L2/434/Bu GFP intracellular growth in HeLa cells
Set-up: species or system HeLa; C. trachomatis total inclusion area by high-content imaging, normalised to DMSO. Particulars: total inclusion area; 28.5 h, 10 µM; inhibitor. The method in brief:
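High-content imaging followed the bulk GFP/resorufin measurement: fixed, Hoechst-stained cells were scored for GFP inclusions and host nuclei per well. Total inclusion area and count served as growth proxies, nuclei number as the viability proxy. MIC calculation matched the bulk assay.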

Some of the results follow.

For the molecule `Nc1nonc1OCC(COc1nonc1N)(COc1nonc1N)COc1nonc1N` [CBK011044], the “% of control remaining” value is listed as 123.35.

Turning to `O=P(O)(O)CCCc1ccccc1` [CBK012021], the “% of control remaining” value is given as 85.4295. As for `CC1(C)CC(=O)C(C2(O)C(=O)Nc3ccc(Br)cc32)CO1` (stereo not shown) [CBK263410], the figure is 109.345. In the case of `CN(C)C(=O)Oc1cc(CN2CCCC2)c2ccn(S(=O)(=O)c3ccccc3)c2c1` [CBK137151T] it was 76.0582; in that of `O=C(Nc1ccc2c(c1)OC(F)(F)O2)c1nn(Cc2ccc(-c3csnn3)cc2)c2ccccc12` [CBK047877], 73.6247; in that of `CC(C)CN(/C=N/c1nc(OC(=O)N(c2ccccc2)c2ccccc2)nc2c1ncn2C1CC(O)C(CO)O1)CC(C)C` (stereo not shown) [CBK201170], 109.912. As for `Cc1ccc(Cn2nc(C(=O)NCC3COc4ccccc4O3)c3ccccc32)cc1` (stereo not shown) [CBK047831], the figure is 95.9186; as for `COc1ccc(OC(=O)Nc2nn(Cc3ccc(C#N)cc3)c3ccc(C)cc23)cc1` [CBK048654], 99.292; as for `O=C(N[C@H]1CCN2C(=O)N(CCCl)C(=O)[C@@H]2C1)c1cccs1` [CBK289542], 88.1819.

As to `O=C(Nc1ccc(OC(=O)N2CCCCC2)cc1)N1CCCCC1` [CBK090060], the “% of control remaining” value worked out at 57.9584. As for `Cc1nnsc1C(=O)N[C@H]1CCN2C(=O)N(CCCl)C(=O)[C@@H]2C1` [CBK289550], the figure is 105.228. As for `CC(C)C(Nc1c([N+](=O)[O-])cc(C(F)(F)F)cc1[N+](=O)[O-])C(=O)O` (stereo not shown) [CBK261041], the figure is 95.8215. As for `Cc1ccc(Cn2nc(NC(=O)Oc3ccccc3)c3ccccc32)cc1` [CBK048407], the figure is 119.111. Turning to `O=C(/C=C/c1ccc(N2N=N2)cc1)/C=C/c1ccc(N2N=N2)cc1` [CBK261638], the “% of control remaining” value came out at 97.7808. As for `CC1CN(C(=O)COc2ccccc2OC(=O)N(C)C)CC(C)O1` (stereo not shown) [CBK057627], the figure is 34.0882; as for `CCC(=O)N(C[C@H]1CCC[C@@H]1N(C)C)c1ccc(Cl)c(Cl)c1` [CBK003408], 84.0379.

`Cc1c([N+](=O)[O-])c([N+](=O)[O-])nn1CC(=O)NCc1cccnc1` [CBK262428]: the “% of control remaining” value was 109.919. Turning to `CN(C)C(=O)Oc1ccc2[nH]c3c(c2c1)CCNC31CCN(CCOc2ccccc2)C1` (stereo not shown) [CBK107679], the “% of control remaining” value amounted to 92.2695. As for `S=C(Nc1ccc2nc3c4ccccc4c4ccccc4c3nc2c1)N1CCOCC1` [CBK263153], the figure is 70.269; as for `O=C(O)Cn1cc(C(=O)c2cccs2)c2ccccc21` [CBK287110], 95.5865. In the case of `O=C(O)c1cccc(NC(=O)c2cc([N+](=O)[O-])cc([N+](=O)[O-])c2)c1` [CBK261555] it was 107.852; in that of `O=C(NO)Nc1ccc(Cl)c(Cl)c1` [CBK016929], 9.766; in that of `CC(N)Cc1cn(C)c2ccccc12` (stereo not shown) [CBK012030C], 19.7769. As for `O=C(O)c1cc(NC(=O)c2ccc3c(c2)C(=O)N(Cc2ccco2)C3=O)cc(C(=O)O)c1` [CBK267374], the figure is 135.449; as for `CS(=O)(=O)c1ccc(-c2ccc3c(c2)CCN(C2CCN(C(=O)Oc4ccccc4)CC2)C3)cc1` [CBK169518], 66.2463. On to `O=C(NN=C1CCCCC1)C(O)(c1ccccc1)c1ccccc1` [CBK261783], for which the “% of control remaining” value came out at 107.444. In the case of `Cc1cccc(CNC(Cc2ccsc2)c2nccs2)n1` (stereo not shown) [CBK282697] it was 113.435; in that of `CONC(=O)c1nn(Cc2ccc(C)cc2)c2ccccc12` [CBK047848], 42.6534; in that of `O=P(O)(O)/C=C(\Cl)c1ccccc1` [CBK261019], 71.9927.

`O=C(N[C@H]1CCN2C(=O)N(CCCl)C(=O)[C@@H]2C1)c1ccncc1` [CBK289551]: the “% of control remaining” value amounted to 103.405. In the case of `CCCN(CCCc1ccccc1)C1Cc2cc(OC)c(OC)cc2C1` [CBK017596C] it was 86.2942; in that of `O=C(NC1CC1)c1nn(Cc2ccc(S(=O)(=O)N3CCCCC3)cc2)c2ccccc12` [CBK047820], 96.5136; in that of `COc1cc(C(=O)N2CCC(N3C(=O)Cc4ccccc43)CC2)ccc1C` [CBK155465], 66.3226. In the case of `CSc1nnc(C(N)Cc2c[nH]c3ccccc23)o1` (stereo not shown) [CBK269950C] it was 97.9978; in that of `CS(=O)(=O)c1ccc(-c2ccc3c(c2)OCCN(C2CCN(C(=O)Oc4ccccc4)CC2)C3)cc1` [CBK169259], 92.126. As for `CN(C)[C@@H]1C[C@H](C2(c3ccccc3)OCCO2)CC[C@H]1N(C)C(=O)Cc1ccc(Cl)c(Cl)c1` [CBK016338], the figure is 29.7984; as for `O=C(O)CCCNC(=O)C(O)(c1ccccc1)c1ccccc1` [CBK269156], 100.279; as for `O=P(Nc1ccc(Cl)c(Cl)c1)(Nc1ccc(Cl)c(Cl)c1)Oc1ccc(Cl)cc1` [CBK263487], 94.2998. Turning to `NC(=O)C(=O)c1cn(Cc2ccccc2)c2ccccc12` [CBK288473], the “% of control remaining” value is recorded as 46.1765. In the case of `COc1ccc([C@]23CC[C@H](NC(=O)Nc4ccc(C#N)c(Cl)c4)C[C@H]2N(C)CC3)cc1OC` [CBK066928T] it was 93.6436; in that of `CNC(=O)Oc1ccc(C)cc1C(=O)N(C)C` [CBK012319], 89.2363; in that of `O=[N+]([O-])c1ccc(-n2cnc3ccccc32)c([N+](=O)[O-])c1` [CBK261120], 10.5554. As for `O=C(O)C1C2CCC(O2)C1C(=O)NC1CCCCC1` (stereo not shown) [CBK286848], the figure is 77.6969; as for `Cc1cn(-c2ccc(OC(=O)NC(C)(C)C)c(Cl)c2)c(=O)n1C` [CBK025991], 52.2786; as for `O=C(O)CP(=O)(O)c1ccc(Cl)cc1` [CBK019291], 96.8433. As to `COC(=O)c1nn(Cc2ccc(OC)cc2)c2ccccc12` [CBK093526], the “% of control remaining” value was found to be 3.397.
